# Variants at the background level are over-represented here.
# B1: TPR 5TU (parent)
# chain: GGAUCUUCUCGAUCUAACAAAAAAGACAAAUCUGCCACAAAGCUUGAGAGCAUCUUCGGAUGCAGAGGCGGCAGCCUUCGGUGGCGCGAUAGCGCCAACGUUCUCAACUAUGACACGCAAAACGCGUGCUCCGUUGAAUGGAGUUUAUCAUG
# Variants of: B1
# Assay: polymerase ribozyme fitness, log enrichment relative to wild type (log ratio); higher = more active; in vitro selection for triplet polymerase activity
# Outline: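 Libraries of mutants in each subunit of a heterodimeric triplet polymerase ribozyme were generated by PCR and transcribed. In triplicate, each went through one in vitro selection round: annealing with biotinylated primer, partner subunit and triplets; frozen incubation at −7 °C; gel excision of extended constructs; streptavidin-bead capture; RT-PCR. Fitness, taken from Illumina sequencing of input and output libraries, is the logarithm of a genotype's enrichment over wild-type enrichment, averaged across replicates with inverse-variance weights. The logarithm is base 2, and genotypes needed ≥10 input reads and ≥1 read per output to be kept.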
row,Variant,polymerase ribozyme fitness (log ratio)
1,U13G A23C G34C A64C U82A U139A,≤ -4.2
2,U13G A24U A66C C76A U144A U146A,≤ -4.2
3,U13A C57U G58A U61A C63U G80C C85G C95U C125U U127C,≤ -4.2
4,A12U U90A G92U G126A A147U,≤ -4.2
5,A12U G50A C85A G88A A121G,≤ -4.2
6,A12U A22C A29G C76U G94A G117U,≤ -4.2
7,U13A A17U C35U C75U C108U U144C U151G,≤ -4.2
8,U13G C18G U45A G59U U104G U134C G140U U144A,≤ -4.2
9,U13C A20C A52C U90G G94A C95A C105U U130G,≤ -4.2
10,C14G A40C G80C C96U,≤ -4.2
11,U13G G136A U144C,-2.04
12,U13A A41C C51G U56A C57A U130A,≤ -4.2
13,A12G C87U,-0.54
14,A12G C76G G80A A89C C95A,≤ -4.2
15,U13G A24U A30G C87U G88C U102C A147U,≤ -4.2
16,U13G A20C U55G U90G C95G C105A C116G G124A,≤ -4.2
17,U13G U61A C85A G92U U148C,≤ -4.2
18,C14A U53A C96A A98C A120U G141A,-3.99
19,U13C C27U G50C G92C,-4.02
20,U13C C57U A73C G94C G136A A147C,≤ -4.2
21,C14A G42C A60G G86U C99G,≤ -4.2
22,U13A U53A C85U C87U G88C,≤ -4.2
23,A12G G84A G143A A147G,-3.25
24,C14A C75A C76U C85U,≤ -4.2

row,Variant,polymerase ribozyme fitness (log ratio)
1,C14A C27G C32G U77C G84A,≤ -4.2
2,C14A A26U A29G C57G C93A G141C,≤ -4.2
3,U13C C51A G83C A89G C125U,≤ -4.2
4,U13C G59A U61G G62A C93U G141C,≤ -4.2
5,U13G A24C A30C G42A C103U G126C G128U C129A A137G,≤ -4.2
6,A12U A16U A20G C36G C54U A60G G83A,≤ -4.2
7,A12G G58A A91U U109G,-3.78
8,A12U A91G,-2.26
9,A12U A91U,≤ -4.2
10,C14G A17U A22U G65U U90A,≤ -4.2
11,A12G G88A U109C A142C,-4.12
12,C14A C43U A47U C76U G86C U102C U109G,≤ -4.2
13,C14A G83A,-0.809
14,A12G G25C C75U U90G U102G C118G C131G,≤ -4.2
15,U13A U15G G34U G88C G92A C96A,≤ -4.2
16,U13A C18G,-0.831
17,A12G G50U U61A G68A A91G C96G A106G,≤ -4.2
18,A12U G67U G84A A110U,≤ -4.2
19,A12G C87U G88A C105G A115G,≤ -4.2
20,C14G A21C C43U A49C C51A A91U C93A A147C,≤ -4.2
21,A12U C36A C87U G143U,≤ -4.2
22,A12U A20U G81A C87A C96A U102C C125U,≤ -4.2
23,A12U C38U C93U U102G U145C,≤ -4.2
24,C14G A20U A40C G42C C93G,≤ -4.2

row,Variant,polymerase ribozyme fitness (log ratio)
1,A12U C63A U78G C95U,≤ -4.2
2,A12U C38U G65C C69U C125G,≤ -4.2
3,U13C A37G G126C,-1.85
4,U13A A26U C76U U146A,-3.35
5,A12U A21U A39C G92A U109G A137G,≤ -4.2
6,C14G A20G A39G G67A A97G,≤ -4.2
7,C14G A41C A52G C79G A137C U144C,≤ -4.2
8,C14G A20U A29C A40G G59U C85G A122U U148A,≤ -4.2
9,U13C C63G G68A G133U U144G U148G,≤ -4.2
10,A12U A28U U55G A66C G74C G80C C85A C87U C96U,≤ -4.2
11,C14A A30U C93U U102A,≤ -4.2
12,C14A U15G C93A C116G U135G,≤ -4.2
13,A12G G83A C116A G141C,≤ -4.2
14,C14G C32G G141U A147C,≤ -4.2
15,C14A G58A A89U G94U,-3.75
16,A12U C85A C96A,-2.97
17,U13G G68A G74A C95U C105G C118A C123A,≤ -4.2
18,U13G U15A C69A C123U G141A A150C,≤ -4.2
19,A12G U78C U139G,-1.31
20,C14G A16C C57U G94U A137U U144A,≤ -4.2
21,C14A A20C C27A G58U A89G C93U,≤ -4.2
22,C14A A37U C75G G94A A113G C114G C149A,≤ -4.2
23,U13C G58C G67A G94C,≤ -4.2
24,U13A A40C C57A G88A A119C,≤ -4.2

row,Variant,polymerase ribozyme fitness (log ratio)
1,A12G U53A G68A A107U,≤ -4.2
2,A12U U15C A49C G88C C123U G143C,≤ -4.2
3,C14G A29G C54U C132G,≤ -4.2
4,C14A A16U U44A G50U C51A U90A G92A A107G G112U A137G,≤ -4.2
5,C14G A52U A91C C125U,≤ -4.2
6,C14G A30G G46C C95U,-4.17
7,C14A A49C C57A G83A C105A,≤ -4.2
8,A12U C87U A97U,-0.917
9,A12U U13G A24C A41G A49U C76A C99A G128C G136U A137U,≤ -4.2
10,C14G A17U C43U U61G G88U,≤ -4.2
11,U13G U77G U145G U151G,≤ -4.2
12,U13G A37C G83A G124C A142C,≤ -4.2
13,C14G A49C C51A C54U G59A G92A C95U A113U U134C A137U,≤ -4.2
14,U13C A37G G67A U134A G152A,≤ -4.2
15,A12U C14A U44G G59A G65A C79A C105G,≤ -4.2
16,C14G A16U A20U A24U A30U,≤ -4.2
17,U13G C14G A23U C27A G68A C87A,≤ -4.2
18,U13A C14G C27U U56C C57A G58C G62A C87G U90C C123U C131G G152C,≤ -4.2
19,U13C C85G C87U G94C A110G C125U U135A,≤ -4.2
20,A12G G42A G94A C123U,≤ -4.2
21,A12U C18G A20G A21C U53G C72U C87G G88C G117U U127C G143A,≤ -4.2
22,A12U A22U G25U A30U C93A A98U U135A,≤ -4.2
23,C14A A17G A39C G70A U111G,≤ -4.2
24,U13G A24C C51U G94A,≤ -4.2

row,Variant,polymerase ribozyme fitness (log ratio)
1,C14A A52C A91U U101A,≤ -4.2
2,U13A U45A C54U U109C,≤ -4.2
3,A12U U82G,-1.49
4,U13A A52G U82A,-0.721
5,A12U A26C A29U G59C C85G G100C C116U C149A,≤ -4.2
6,A12G U53A G67C C75U C76U C96U U130G,≤ -4.2
7,A12G C105A G124U U148G C149U,≤ -4.2
8,U13G C96U A97U A137U,≤ -4.2
9,C14A A20U C51U G86A U90G A98G A121G U127G,≤ -4.2
10,C14G A23U U61A A119U G136A,≤ -4.2
11,A12U U15C U56A G92A A150G,-1.16
12,U13A G50A U56C G83C C85A G94U U134G A137C,≤ -4.2
13,U13G A17G C96A G143C,-4.19
14,A12U A23G C87U,-3.67
15,C14A C18U C27U C38G U61C G83A C96A A138G,≤ -4.2
16,C14A A39C C54U U102G G143U,≤ -4.2
17,C14A A22G G50C U55A C93A A107C G140C,≤ -4.2
18,A12U A28G G88C A89U C95A G152U,≤ -4.2
19,U13G C72U C75G C131G U139G,≤ -4.2
20,A12G C63U,-0.0387
21,A12U U31C C32U A40U C57G A73G C75A G88A G152A,≤ -4.2
22,U13C A26U C51U A91U C93U C114A A138G,≤ -4.2
23,U13G A52C C87A G141A,≤ -4.2
24,C14G A52C U55A C131G,≤ -4.2

row,Variant,polymerase ribozyme fitness (log ratio)
1,C14G A28U U55G G86U,≤ -4.2
2,A12U U56A C85G G88A C116G A119U A120C,≤ -4.2
3,C14G A41G C43U C51G U55G C85U A115U U139A U144C,≤ -4.2
4,A12G C54U G58C C79U C99U C125A,≤ -4.2
5,A12U C87G,-4.2
6,U13G U31C C96A,-0.864
7,A12U A41C G83C C118G G133U,≤ -4.2
8,U13G C57A,-0.243
9,U13A A41G A52C C75A C93A C108A U144A,≤ -4.2
10,A12U C27U G58C C96U G124C G140U,≤ -4.2
11,U13A C87A A110C U134C,≤ -4.2
12,C14G A73G C79G A98G G143C,≤ -4.2
13,U13G A29G U33G G42A U44A G80C G88U C96U C105G G112C C123G,≤ -4.2
14,U13G C75A C108G G143A,≤ -4.2
15,A12U G34A A49C U56A C93A C95G G140C U146C,≤ -4.2
16,A12U C72U A73G A138C A142U A147C,≤ -4.2
17,U13G G46C C54U G92U,-3.24
18,A12U A37U A60G C85U G86C A89U,≤ -4.2
19,A12U A16G A30U C79G C95A U144A,≤ -4.2
20,U13G U53A A66C G83U C149A,≤ -4.2
21,U13A A28U C36U G81C,≤ -4.2
22,A12G U53G G59A C95G A98C U146A,-1.26
23,C14A C27U A52C C85U C129A,≤ -4.2
24,C14A A24U U56A C72A G80U,≤ -4.2

row,Variant,polymerase ribozyme fitness (log ratio)
1,A12U A21C G70C G84U C132A G136A A142U,≤ -4.2
2,U13A A20U C51A G86C,≤ -4.2
3,U13G C103A,-2.97
4,U13G U31A A41G C79A G83A G94U C125G,≤ -4.2
5,U13A A30G G83U A110U G117C,≤ -4.2
6,U13A C27U A113G C116G A119U G124C,≤ -4.2
7,C14A A30U A40U U144C C149A,≤ -4.2
8,U13C G42C C96U A122C,≤ -4.2
9,A12G U13A A19C G92C C99U G124C U148G G152U,≤ -4.2
10,C14A G83A G92A U102C,≤ -4.2
11,C14G A49G C54A G88A,≤ -4.2
12,U13G G92C C114U A150U,≤ -4.2
13,U13A A52U A73G C85A U134G,≤ -4.2
14,U13A G58A C87U C105A C108U G124A U145A,≤ -4.2
15,C14G A21C G81U G83U U111A G140A U146G,≤ -4.2
16,C14A A47C G81C G86A C96A C149U,≤ -4.2
17,A12U A16C A28G C38U A41U G86A A150G,≤ -4.2
18,A12U A16U C51A G94A U109C A113G C116A U144A,≤ -4.2
19,A12U C18G G50C A120U C125U C149G,≤ -4.2
20,C14A A20U A39C C95U C149U,≤ -4.2
21,U13A C18G A30G A60C G68C C79G C87G A106U,≤ -4.2
22,C14A C85U C96G U146G A150G,≤ -4.2
23,C14A C93U,-2.33

# — the RNAGym collection of RNA variant scans (doi:10.1073/pnas.2313332121)
